Laboratory results from PubChem BioAssay (Tox21).
Several values for one entry are separate records, joined by “and”; a condition that tells them apart may be missing. Identical values can stand only once. Inconclusive results, whose numbers are uncertain, are shown with a selection of clear calls. For part of these data: Potencies beside an inconclusive call are fits to weak or partial responses and may not hold up. Some structures have more than one record in an assay (separate samples or runs), and their calls can disagree. Activity calls are given as the source filed them. Unless noted, calls follow the shape of the dose curve; as a rule, active = well fitted curve in the direction sought with a large enough effect in the repeat runs; inconclusive = weak or mixed curves; inactive = no such curve, though single readings can be large; an effect the other way counts as inactive or inconclusive.

Tests used:
[1] = qHTS assay to identify small molecule agonists of the estrogen receptor beta (ER-beta) signaling pathway - cell viability counter screen (AID 1259380); also: potency is read from the fitted curve at half-maximal effect; nearly all actives have a fitted effect of over 30% in size
Outline: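 HEK293T ER-beta-UAS-bla; 2% CS-FBS; 6 hr pre-plate, 16 hr cpd at 37C/5% CO2; LiveBLAzer read first, then CellTiter-Glo 30 min RT, luminescence.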

[2] = qHTS assay to identify small molecule agonists or antagonists of the thyroid stimulating hormone receptor (TSHR) signaling pathway - wild type cell line counter screen (AID 1259384; calls by dose curve; also: % is scaled to controls: 0 for no effect and ±100 for the full control effect); conditions: HEK293 wild type, cAMP HTRF counter-screen; cAMP activity change: at 92.4 µM (top of the series), stronger effect = higher value unless noted
Outline: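 Wild-type HEK293 cells were plated 18 h at 37 C/5% CO2, pin-dosed with compound plus Ro20-1724 medium, held 30 min at room temperature, then given cAMP-d2 and anti-cAMP-cryptate; fluorescence was read after 1 h. Fifteen concentrations, triplicate.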

[3] = target: Thyrotropin receptor (Homo sapiens) (UniProt P16473); assay: qHTS assay to identify small molecule antagonists of the thyroid stimulating hormone receptor (TSHR) signaling pathway (AID 1259385; calls by dose curve; also: nearly all actives have a fitted effect of over 20% in size; also: potency is read from the fitted curve at half-maximal effect; as to activity change, negative = inhibition: % is scaled to controls: 0 for no effect and ±100 for the full control effect); conditions: TSHR-HEK293 cAMP HTRF, TSH-stimulated antagonist mode; activity change, negative = inhibition: at 92.4 µM (top of the series) unless noted
Outline: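 TSHR-HEK293 cells were plated and held 18 h at 37C/5% CO2, then given compound plus Ro20-1724 and stimulated with TSH at 1.5 ng/mL final. After 30 min at room temperature, cAMP was detected with cAMP-d2/anti-cAMP-cryptate (1 h) by fluorescence.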

[4] = qHTS assay to identify small molecule agonists of the estrogen receptor alpha (ER-alpha) signaling pathway in the presence of an antagonist - cell viability counter screen (AID 1259386);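 also: potency is read from the fitted curve at half-maximal effect; cells exposed to compounds for 22 h at 37 °C before the viability read; nearly all actives have a fitted effect of over 30% in size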
Outline: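 VM7Luc4E2, stripped-serum pre-culture 5 d; 24hr plating; +ICI-182,780 10.0nM final; cpds 15 conc, 22hr, 37C/5% CO2; CellTiter-Fluor added at 21hr, fluorescence 1hr later.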

[5] = target: Progesterone receptor (Homo sapiens) (UniProt P06401); assay: qHTS assay to identify small molecule agonists of the progesterone receptor (PR) signaling pathway (AID 1346784; calls by dose curve; also: nearly all actives have a fitted effect of over 30% in size; also: potency is read from the fitted curve at half-maximal effect; as to activation: % is scaled to controls: 0 for no effect and ±100 for the full control effect); conditions: PR-UAS-bla HEK293T, beta-lactamase FRET ratio, 16 h; activation: at 92.4 µM (top of the series) unless noted
Outline: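 Seed PR-UAS-bla HEK 293T cells (2% charcoal-stripped FBS), incubate 6 hr at 37C; add compounds in DMSO, 16 hr at 37C; add LiveBLAzer B/G substrate, 2 hr RT; read fluorescence intensity.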

[6] = target: Progesterone receptor (Homo sapiens) (UniProt P06401); assay: qHTS assay to identify small molecule antagonists of the progesterone receptor (PR) signaling pathway (AID 1346795; active = well fitted inhibition curve with a large enough effect in the signal ratio in the repeat runs, not every such curve was filed as active; inconclusive = weak or mixed curves; the % refers to the signal ratio; also: potency is read from the fitted curve at half-maximal effect); conditions: PR-UAS-bla HEK293T, beta-lactamase FRET ratio, 16 h; activity change, negative = inhibition: at 92.4 µM (top of the series) unless noted
Outline: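 Screening used a GripTite HEK293T line with PR-responsive UAS-beta-lactamase. Cells were challenged with compound in the presence of 1 nM R5020 final for 16 hr at 37C; B/G FRET substrate, 2 hr room temperature, fluorescence.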

[7] = qHTS assay to identify small molecule agonists of the TGF-beta/Smad signaling pathway (AID 1346859; active = well fitted activation curve with a large enough effect in the signal ratio in the repeat runs, not every such curve was filed as active; inconclusive = weak or mixed curves; the % refers to the signal ratio; also: potency is read from the fitted curve at half-maximal effect); conditions: SBE-bla HEK293T, TGF-beta/Smad beta-lactamase reporter, 5 h; activation: at 76.8 µM (top of the series)
Outline: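 Beta-lactamase reporter activity downstream of Smad binding elements was measured in stably transfected HEK 293T cells; compounds were incubated for 5 hr, substrate for 2 hr at room temperature.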

[8] = qHTS assay to identify small molecule antagonists of the TGF-beta/Smad signaling pathway (AID 1346924; active = well fitted inhibition curve with a large enough effect in the signal ratio in the repeat runs, not every such curve was filed as active; inconclusive = weak or mixed curves; the % refers to the signal ratio; also: potency is read from the fitted curve at half-maximal effect); conditions: SBE-bla HEK293T, TGF-beta/Smad reporter, beta-lactamase ratio; activity, negative = inhibition: at 76.8 µM (top of the series) unless noted
Outline: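 SBE-bla HEK 293T cells were plated overnight, then received compound in DMSO plus TGF-beta1 (added as a 0.25 ng/mL solution) and were incubated 5 h at 37 C. Beta-lactamase reporter activity was read after 2 h at room temperature with LiveBLAzer B/G FRET substrate (ex 405, em 460/530 nm).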

[9] = Human pregnane X receptor (PXR) small molecule agonists, qHTS cell viability counter screen (AID 1346977); also: potency is read from the fitted curve at half-maximal effect; nearly all actives have a fitted effect of over 50% in size
Outline: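 After a 5hr pre-incubation, PXR-Luc HepG2 cells received compounds plus positive control in DMSO and were kept 24hr at 37C. Cell viability was quantified by fluorescence from CellTiter-Fluor added for the final hour.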

[10] = Caspase-3/7 induction in CHO-K1 cells by small molecules, qHTS cell viability counter screen (AID 1346979); also: potency is read from the fitted curve at half-maximal effect; nearly all actives have a fitted effect of over 35% in size
Outline: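 Multiplexed with Caspase-Glo 3/7 in CHO-K1 cells, this counter screen added CellTiter-Fluor after 16hr of compound exposure and recorded fluorescence 1hr later.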

[11] = qHTS assay to identify small molecule antagonists of the progesterone receptor (PR) signaling pathway - cell viability counter screen (AID 1346798); also: potency is read from the fitted curve at half-maximal effect; nearly all actives have a fitted effect of over 50% in size
Outline: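 Measures cytotoxicity in parallel with the PR antagonist reporter read: HEK293T PR-UAS-bla cells get compound and R5020 for 16 hr, and remaining viable cells are quantified by CellTiter-Glo luminescence.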

[12] = qHTS assay to identify small molecule agonists of the progesterone receptor (PR) signaling pathway - cell viability counter screen (AID 1346799; calls by dose curve; also: potency is read from the fitted curve at half-maximal effect; nearly all actives have a fitted effect of over 45% in size)
Outline: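 Using the same plates as the PR reporter screen, HEK293T PR-UAS-bla cells received compounds for 16 hr at 37C and were then lysed with CellTiter-Glo; luminescence was read 30 min later at room temperature.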

[13] = qHTS assay to identify small molecule antagonists of the TGF-beta/Smad signaling pathway - cell viability counter screen (AID 1346824); also: potency is read from the fitted curve at half-maximal effect; nearly all actives have a fitted effect of over 50% in size
Outline: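 SBE-bla HEK 293T cells were plated overnight at 37 C, then given compounds in DMSO plus TGF-beta1 (added as 0.25 ng/mL solution) for 5 hr. After the bla read, CellTiter-Glo was added to the same wells and luminescence read after 30 min at room temperature.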

[14] = qHTS assay to identify small molecule agonists of the TGF-beta/Smad signaling pathway - cell viability counter screen (AID 1346829); also: potency is read from the fitted curve at half-maximal effect; nearly all actives have a fitted effect of over 45% in size
Outline: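 In parallel with the Smad reporter read, viability of HEK 293T cells stably carrying SBE-bla is quantified by ATP luminescence following 5 hr compound treatment.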

[15] = target: Thyrotropin-releasing hormone receptor (Homo sapiens) (UniProt P34981); assay: qHTS assay to identify small molecule antagonists of the thyrotropin-releasing hormone receptor (TRHR) signaling pathway (AID 1346877; active = well fitted inhibition curve with a large enough effect in the repeat runs, not every such curve was filed as active; inconclusive = weak or mixed curves; also: potency is read from the fitted curve at half-maximal effect)
Outline: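 Intracellular calcium fluorescence, read kinetically every second over 3 min, reports TRH-evoked signalling in HEK293 cells carrying TRHR. Test compounds were added 5 min ahead of a 1 nM TRH challenge.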
Tags tell the direction and shape of the fitted curve or compound fluorescence and quenching.

Sequence of UniProt P16473 (P16473 whole entry, looked up): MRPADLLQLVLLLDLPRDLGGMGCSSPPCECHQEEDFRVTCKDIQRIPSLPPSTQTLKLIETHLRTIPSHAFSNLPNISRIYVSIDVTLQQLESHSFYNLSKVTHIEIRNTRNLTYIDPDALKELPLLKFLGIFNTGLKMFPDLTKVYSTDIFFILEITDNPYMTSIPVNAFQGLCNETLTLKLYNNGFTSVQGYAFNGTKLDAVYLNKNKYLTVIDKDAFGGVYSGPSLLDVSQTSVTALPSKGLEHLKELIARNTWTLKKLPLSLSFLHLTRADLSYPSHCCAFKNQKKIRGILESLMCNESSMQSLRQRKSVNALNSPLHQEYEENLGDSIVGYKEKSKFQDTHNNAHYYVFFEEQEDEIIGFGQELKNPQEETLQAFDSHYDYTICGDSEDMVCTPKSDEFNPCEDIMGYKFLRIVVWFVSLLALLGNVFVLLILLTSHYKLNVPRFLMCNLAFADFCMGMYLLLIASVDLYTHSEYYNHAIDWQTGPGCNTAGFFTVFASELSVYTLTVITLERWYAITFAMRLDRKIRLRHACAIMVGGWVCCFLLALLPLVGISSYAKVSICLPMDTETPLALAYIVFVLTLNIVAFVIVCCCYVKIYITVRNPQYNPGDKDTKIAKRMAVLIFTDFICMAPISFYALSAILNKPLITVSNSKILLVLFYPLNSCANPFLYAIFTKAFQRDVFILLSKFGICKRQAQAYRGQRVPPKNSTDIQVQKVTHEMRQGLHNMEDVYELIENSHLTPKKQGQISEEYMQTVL
Sequence of UniProt P06401 (P06401 whole entry, looked up): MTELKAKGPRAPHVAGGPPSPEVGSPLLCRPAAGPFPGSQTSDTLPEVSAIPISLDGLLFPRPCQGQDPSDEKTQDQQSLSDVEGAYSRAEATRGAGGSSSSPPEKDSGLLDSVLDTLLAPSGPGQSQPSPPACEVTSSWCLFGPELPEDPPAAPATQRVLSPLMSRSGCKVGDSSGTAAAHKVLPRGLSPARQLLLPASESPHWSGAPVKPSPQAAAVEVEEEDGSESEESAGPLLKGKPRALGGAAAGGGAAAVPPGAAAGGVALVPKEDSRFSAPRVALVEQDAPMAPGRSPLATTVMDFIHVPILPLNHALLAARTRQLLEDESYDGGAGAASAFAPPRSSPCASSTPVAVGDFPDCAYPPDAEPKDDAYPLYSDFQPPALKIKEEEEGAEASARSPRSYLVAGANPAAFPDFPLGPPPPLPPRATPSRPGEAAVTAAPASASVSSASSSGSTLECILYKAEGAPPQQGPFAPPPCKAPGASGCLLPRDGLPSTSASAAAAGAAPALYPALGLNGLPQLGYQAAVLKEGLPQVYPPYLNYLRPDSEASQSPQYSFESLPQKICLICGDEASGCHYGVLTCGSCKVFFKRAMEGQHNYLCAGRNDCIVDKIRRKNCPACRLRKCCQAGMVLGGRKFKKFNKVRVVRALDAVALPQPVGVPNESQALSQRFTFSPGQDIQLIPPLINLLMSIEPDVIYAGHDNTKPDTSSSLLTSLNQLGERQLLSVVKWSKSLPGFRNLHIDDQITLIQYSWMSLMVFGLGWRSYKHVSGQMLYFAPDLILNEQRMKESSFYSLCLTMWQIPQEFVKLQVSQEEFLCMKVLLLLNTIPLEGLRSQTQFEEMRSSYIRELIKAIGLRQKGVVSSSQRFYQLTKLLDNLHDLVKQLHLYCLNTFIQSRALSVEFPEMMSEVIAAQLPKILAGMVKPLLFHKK
Sequence of UniProt P34981 (P34981 whole entry, looked up): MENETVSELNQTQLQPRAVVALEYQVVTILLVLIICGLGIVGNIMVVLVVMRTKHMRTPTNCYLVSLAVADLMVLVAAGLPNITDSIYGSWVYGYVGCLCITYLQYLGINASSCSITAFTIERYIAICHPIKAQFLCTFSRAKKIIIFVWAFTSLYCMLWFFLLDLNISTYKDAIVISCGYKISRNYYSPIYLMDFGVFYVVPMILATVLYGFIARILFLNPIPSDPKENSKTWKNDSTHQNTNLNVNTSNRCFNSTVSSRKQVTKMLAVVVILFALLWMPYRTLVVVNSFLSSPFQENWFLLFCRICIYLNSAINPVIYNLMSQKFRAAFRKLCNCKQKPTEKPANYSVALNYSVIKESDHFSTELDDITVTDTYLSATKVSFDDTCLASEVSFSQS

COc1cc(-c2ccc(N)c(OC)c2)ccc1N
inconclusive: Potency [1] 7.73 µM [cytotoxic, full curve] and 67.8 µM [cytotoxic, partial curve, poor fit] and 68.6 µM [cytotoxic, single point] | cAMP activity change [2] -17.6% [middle of 4 runs] | Potency [3] 30.3 µM [falling, partial curve] and 52 µM [falling, partial curve] | activity change, negative = inhibition [3] -12.5% and -12.4% | Potency [4] 68.9 µM [cytotoxic, partial curve] and 46.3 µM [cytotoxic, partial curve] | Potency [5] 68.9 µM [cytotoxic, single point] and 65.5 µM [cytotoxic, single point] | Potency [7] 52.5 µM [falling, partial curve] | activity, negative = inhibition [8] 0.228% | Potency [9] 70.8 µM [cytotoxic, partial curve, poor fit] and 65.5 µM [cytotoxic, single point] | Potency [10] 68.9 µM [cytotoxic, single point]
46.3 µM (active) [middle of 4 runs]: Potency [6]

CC1(C)CN=C(NN=C(/C=C/c2ccc(C(F)(F)F)cc2)/C=C/c2ccc(C(F)(F)F)cc2)NC1
active: Potency [1] 19.3 µM | Potency [11] 38.6 µM | Potency [12] 21.7 µM | Potency [13] 38.9 µM | Potency [14] 34.7 µM
inconclusive: Potency [3] 54.5 µM [falling, single point] | Potency [5] 13.7 µM [cytotoxic, full curve] | Potency [6] 27.3 µM [falling, partial curve] | Potency [7] 49 µM [cytotoxic, single point]

CN(C)S(=O)(=O)N(SC(F)(Cl)Cl)c1ccccc1
inconclusive: Potency [3] 68.6 µM [falling, single point] | activation [5] -17.1% | Potency [12] 77 µM [cytotoxic, single point] | Potency [13] 24.5 µM [cytotoxic, partial curve] | Potency [14] 61.6 µM [cytotoxic, single point]
active: Potency [1] 38.6 µM | Potency [6] 48.6 µM | Potency [11] 61.1 µM | Potency [15] 12 µM | Potency [10] 7.7 µM

Clc1ccc(-c2ccc(Cl)c(Cl)c2Cl)c(Cl)c1Cl
active: Potency [1] 58.2 µM | Potency [3] 58.2 µM | Potency [11] 23.2 µM | Potency [12] 41.2 µM
inconclusive: Potency [6] 16.4 µM [rising, full curve] | Potency [7] 18.6 µM [rising, partial curve] | activity, negative = inhibition [8] -13.9%

O=C1C2CC=CCC2C(=O)N1SC(Cl)(Cl)Cl (centres undefined)
active: Potency [1] 30.1 µM | Potency [6] 42.6 µM | Potency [15] 33.3 µM | Potency [9] 21.3 µM
inconclusive: Potency [3] 60.1 µM | Potency [4] 67.5 µM [cytotoxic, single point] | activation [5] -13.9% | Potency [12] 9.65 µM [cytotoxic, single point] and 60.1 µM [cytotoxic, single point] | Potency [13] 13.6 µM [cytotoxic, full curve]

CN(C)[C@@H]1C(=O)C(C(N)=O)=C(O)[C@@]2(O)C(=O)C3=C(O)c4c(O)ccc(Cl)c4[C@@](C)(O)[C@H]3C[C@@H]12
active: Potency [10] 27.9 µM
inconclusive: Potency [1] 7.86 µM [cytotoxic, full curve] | Potency [3] 1.25 µM [falling, partial curve, poor fit] | Potency [5] 62.4 µM [rising, single point] | Potency [6] 62.4 µM | Potency [12] 2.22 µM [cytotoxic, single point] | Potency [7] 31.6 µM [fluorescent, partial curve] | Potency [8] 50 µM [fluorescent, partial curve]
